# Measured values reported in ChEMBL document CHEMBL5308541, “MAIP: An Open-Source Tool to Enrich High-Throughput Screening Output and Identify Novel, Druglike Molecules with Antimalarial Activity” (ACS Med Chem Lett, 2023).
# In all, about 150,000 compounds went through this assay and about 540 (0.36%) showed an effect of 50% or more. This is one part of the list.
# Test system: Plasmodium falciparum
# Assay: Primary screen in NF54 nanoGlo assay, in single point, at 2uM, 72h; a lower Z score goes with more inhibition
# Type: functional, Erythrocyte
# Conditions: timepoint 72 hour
SMILES,% Inhibition,Z score
CCc1nnc(NCCCCN2CCN(C)CC2)c(C#N)c1CC,-13%,2.86
OCCn1cc(Nc2cnc3cc(Cl)c(Cl)cc3n2)cn1,-7%,1.29
O=C(c1cc(-c2cccs2)[nH]n1)N1CCCC2CNCCCC21 (configuration not stated),4%,-0.67
Cc1cc(N2CCOCC2)ccc1N[C@@H](C)C(=O)c1c[nH]c2ccccc12,2%,-0.4
Cc1ccnc(C(=O)Nc2ccc(Nc3cc(N4CCCC4)nc(C)n3)cc2)n1,1%,-0.2
Cn1ccc2ccc(CN3CCC(CN4CCCCC4)CC3)cc21,-3%,0.58
CNc1nc(NCCNc2ncccc2C)cc([C@H]2CCOC2)n1,-12%,2.02
FC(F)Oc1cncc(-c2cccc([C@@H]3COCCN3)c2)c1,-5%,0.94
Cn1nnc2c(C(=O)Nc3ccc4[nH]c(-c5ccccn5)nc4c3)ccnc21,12%,-2.52
Fc1cccc(-c2c[nH]c([C@@H]3CCCCN3c3nccc(-n4cccn4)n3)n2)c1,-10%,1.78
Cc1cc(F)ccc1N1CCC(NCCNc2ncccc2C)CC1,1%,-0.28
Cc1cc(N2CCC(NCCc3cnn(-c4ccccc4)c3)CC2)nc(N)n1,-2%,0.43
O=C(c1ccc(-c2ccc3ocnc3c2)cc1)N1CCCN2CCC[C@H]2C1,7%,-1.13
Cn1ncc2c(N)nc(NCC[C@H]3CCCCN3Cc3ccccc3)nc21,-16%,2.71
Cn1nc(CO)c2c1CCN(Cc1cnc(NCc3ccccc3)nc1)C2,9%,-1.48
O=C(N[C@H]1CCCN(C2CCCCCC2)C1)c1ccccc1-c1ncc[nH]1,1%,-0.24
Cc1nc(NC2CCN(c3ncnc4c3CCCC4)CC2)c2cnn(C)c2n1,-4%,0.88
COc1ccc(-c2cc(N3CCC(C(=O)NCc4nc5ccccc5[nH]4)CC3)ncn2)cc1,2%,-0.43
CN1CCN(C2CN(c3ncnc4cc[nH]c34)CC2O)CC1 (configuration not stated),0%,0.03
OC[C@H]1CCCN(CCNCc2nc(-c3ccc(F)cc3)cs2)C1,-2%,0.34
COCCN1C2CCC1CC(NCCCNc1ccccc1)C2 (configuration not stated),-6%,0.84

SMILES,% Inhibition,Z score
Cn1cc(CNc2ncnc3sccc23)c(-c2ccccc2)n1,-4%,0.94
CCNS(=O)(=O)N1C[C@@H]2Oc3c(F)ccc(F)c3O[C@@H]2C1,-2%,0.36
O=C(c1cc2c(s1)CCOC2)N1CCCc2n[nH]cc21,-9%,2.04
Cc1cccc2c(-c3ccc(CN4CCCCC4)cn3)c[nH]c12,7%,-1.17
CCC[C@]1(C(=O)O)CCCN(S(=O)(=O)c2ccc3[nH]c(=O)sc3c2)C1,4%,-0.64
CNc1nc(C)cc(N2CCC(N3CCC[C@H](C(=O)N4CCOCC4)C3)CC2)n1,0%,0.02
OCCN1CCN(CCCCNc2ncc(Cl)cc2F)CC1,-2%,0.45
CC(C)N1CCN([C@H]2CCN(C(=O)c3ncnc4[nH]ccc34)C2)CC1,4%,-0.79
Cc1cc2nc(-c3cn(CC(N)=O)c4ccccc34)[nH]c2cc1C,-10%,1.77
COc1ccccc1CCNc1nc(CN(C)C2CS(=O)(=O)CC2O)nc2ccccc12 (configuration not stated),-15%,2.89
O=C(NCC[C@@H]1CCCN1)Nc1cccc(-c2cccc(Cl)c2)c1,-5%,0.89
CNc1cncc(-c2cc(OC(F)(F)F)ccc2O)n1,-2%,0.35
CC(=O)N1CCC(N2CCC(O)(c3csc(CN4CCN(c5ccccn5)CC4)n3)CC2)CC1,-14%,2.17
O=C(NCc1ccc2c(c1)OCO2)c1ccc(N2CCC(NCCCOc3cccnc3)CC2)cc1,-10%,2.07
COc1ccc(-c2[nH]ncc2CN(CCN2CCCCC2)[C@H]2CCCNC2)cc1,5%,-0.86
COc1ccc(-c2nnc(-c3cccnc3N3CCN(C4CCN(C)CC4)CC3)o2)cc1,1%,-0.16
Cc1csc(N2CCC(NCc3ccnc(N4CCCCCC4)c3)CC2)n1,4%,-0.58
C[C@@H](c1ccc(-c2cccc(OCCn3ccnc3)c2)cc1)N1CCOCC1,-6%,0.95
Cc1ccccc1CN1CCCN(CCCNC(=O)c2nnc(-c3ccc(F)cc3)o2)CC1,-10%,2.08
CC(C)c1ccc(CN2CCC[C@@](O)(CNCCN3CCNCC3)C2=O)cc1,26%,-5.1
OC[C@H]1CCCCN1CCCNc1ccc2ccccc2n1,2%,-0.37

SMILES,% Inhibition,Z score
O=C(c1c[nH]c2cc(F)ccc12)N1CCC[C@H](CN2CCOCC2)C1,-5%,0.69
Cc1cc(C)n(-c2cncc(N3CCC(c4c[nH]c5ccccc45)CC3)n2)n1,0%,0.07
CN1CCN(CCCNCc2csc(-c3ncccn3)n2)[C@H](c2ccccc2)C1,-4%,0.93
O=C(c1ccc(N2CCC(N3CCC(O)(c4ccccn4)CC3)CC2)cc1)N1CCc2ccccc2C1,-5%,0.89
O=C(NCCCN1CCC(N2CCCCC2)CC1)c1ccn2c(-c3ccc(F)cc3)nnc2c1,-8%,1.64
Cc1nc(C)c(F)c(N2CCC(c3cc(N)[nH]n3)CC2)n1,2%,-0.37
CC(C)C[C@H]1Nc2ccccc2-c2nc(=O)c(-c3ccc(F)cc3)nn21,-9%,1.39
CCNS(=O)(=O)c1cccnc1Nc1ccc(F)c(Cl)c1,0%,0.03
CC(C)c1noc(CCNc2nc(-c3ccncc3)nc3c2cnn3C)n1,4%,-0.93
COCCN1CCC[C@H](CNc2nc3nonc3nc2NC2CCCC2)C1,-1%,0.1
CCc1c(C(=O)N2CCN(CCN3CCOCC3)CC2)[nH]c2ccccc12,3%,-0.44
CN1CCN(C[C@H]2CN(c3nc(N(C)C)cc(C(F)(F)F)n3)CCO2)CC1,2%,-0.53
NC[C@H]1CCCN(c2ccc(C(=O)N3CCC(N4CCOCC4)CC3)cn2)C1,-2%,0.28
O=C(NCCc1cn2cccnc2n1)C1(N2CCOCC2)CCCCC1,0%,-0.11
Cn1ccc(N[C@@H](C(=O)c2c[nH]c3ccccc23)c2ccccc2)n1,3%,-0.57
CN(C)CCCN1CCN(C(=O)c2ccc(-c3ccncc3F)cc2)CC1,7%,-1.04
COc1cc(CNC[C@H]2CCN(C3CC3)C2)cc2c1OCCO2,8%,-1.35
CCOC(=O)C[C@H](NC(=O)Nc1ccc(-c2cc3cc(Cl)ccc3[nH]2)cc1)c1ccccc1,-9%,1.53
CC(=O)N1CCC(N[C@@H]2C[C@@H](O)[C@H](CO)[C@H]2Cc2ccnc(-c3cccc(C(F)(F)F)c3)n2)CC1,-5%,0.69
COc1ccccc1N1CCN([C@@H]2[C@H](O)[C@H](CO)O[C@@H]2CNC2CCN(C)CC2)CC1,3%,-0.41
CN1CCN(c2ccc(CNCCN3CCN(C(=O)OC(C)(C)C)CC3)cc2)CC1,1%,-0.16

SMILES,% Inhibition,Z score
Clc1cnc(C2CCN(Cc3ccc4cn[nH]c4c3)CC2)nc1,2%,-0.29
O=S1(=O)CCCN1c1cccc(CNC2CCC(c3ccccc3)CC2)c1 (configuration not stated),-6%,1.12
CC(C)(C)OC(=O)N1CC(O)(CNc2ncnc3cc(F)c(F)cc23)C1,-6%,1.11
Cc1cc(C)c2c(NCCN3CCN(Cc4ccccc4)CC3)ncnc2n1,-13%,2.29
COCCc1noc(-c2ccc(N3CCCN(c4ccncc4C)CC3)nc2)n1,7%,-1.44
CN(CCc1ccncc1)C(=O)N[C@H]1CCOC2(CCCCC2)C1,1%,-0.18
CN1C2CCC1CN(C(=O)c1cccc(-c3cccc4c(N)ccnc34)c1)CC2 (configuration not stated),5%,-0.79
O=C(CCC1CCCC1)N1CC2CN(c3ncnc4[nH]ccc34)CC2(CO)C1 (configuration not stated),-9%,1.56
CC1(C)CC(NCc2csc(-c3ccsc3)n2)CC(C)(C)N1,1%,-0.19
COc1ccc(OC)c([C@H]2CCN(C(=O)c3ccnc4ccccc34)C2)c1,3%,-0.5
C[C@@H](CN1CCCCCC1)N1CCCN(S(=O)(=O)N2CCCC2)CC1,-2%,0.26
OCc1nc2cc(-c3cccc4[nH]ccc34)ccc2[nH]1,-5%,0.9
Cc1cccc(CCNC(=O)N2CC3CCC2C3)n1 (configuration not stated),-6%,1.37
Cc1cccc(Nc2nc(N)nc(CN(C)C3CC4CC(=O)N(C)CC4C3)n2)c1 (configuration not stated),-7%,1.04
COCCC1(NC(=O)c2cc(-c3cnc4[nH]ccc4c3)ccn2)CCNCC1,-21%,3.26
C[C@@H]1C(=O)N2CCC[C@@H]2CN1C(=O)c1cc(-c2ccc(Cl)cc2)nc2ccccc12,9%,-1.73
COCCN1CCC(CNc2nncc(-c3c(OC)cccc3OC)n2)CC1,-3%,0.58
c1ccc(N2CCN(Cc3ccc(OC[C@H]4CCCNC4)cc3)CC2)cc1,-4%,0.64
